# Results reported in PubChem BioAssay (Tox21).
# Several values for one entry are separate records, joined by “and”; a condition that tells them apart may be missing. Equal entries are not always repeated. This list was built around the results that the source calls inconclusive (neither active nor inactive); the mix of calls is not that of the screen. For some assays here: A potency beside an inconclusive call is a rough fit, not a confirmed value. Some compounds were tested as several samples or in several runs, with calls that do not always agree. Activity calls are given as the source filed them. Unless noted, the call rests on the fitted dose curve; in most records, active means well fitted curve in the direction sought with a large enough effect in the repeat runs; inconclusive means weak or mixed curves; inactive means no such curve, though single readings can be large; an effect the other way counts as inactive or inconclusive.
# Experiments:
# [1] = biological target: Glucocorticoid receptor (Homo sapiens) (UniProt P04150); test: qHTS assay to identify small molecule agonists of the glucocorticoid receptor (GR) signaling pathway (AID 720691; active means well fitted activation curve with a large enough effect in the signal ratio in the repeat runs, not every such curve was filed as active; inconclusive means weak or mixed curves, or effect the other way; inactive means no such curve, though single readings can be large or run the other way; the % refers to the signal ratio; further: potency means the concentration at half of the fitted maximal effect); details: GR-bla HeLa, beta-lactamase reporter ratio, 18 h; activation: at 62.4 µM (top of the series) unless noted
# In short: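 qHTS in GR-bla HeLa cells: 4 h settling at 37 C/5% CO2, 18 h compound incubation at 37 C, 2 h LiveBLAzer B/G FRET substrate at room temperature, fluorescence intensity measured.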
# [2] = biological target: Glucocorticoid receptor (Homo sapiens) (UniProt P04150); test: qHTS assay to identify small molecule antagonists of the glucocorticoid receptor (GR) signaling pathway (AID 720692; active means well fitted inhibition curve with a large enough effect in the signal ratio in the repeat runs, not every such curve was filed as active; inconclusive means weak or mixed curves, or effect the other way; inactive means no such curve, though single readings can be large or run the other way; the % refers to the signal ratio; further: potency means the concentration at half of the fitted maximal effect); details: GR-bla HeLa, beta-lactamase FRET ratio, dexamethasone-stimulated, 18 h
# In short: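 Inhibition of glucocorticoid signalling is measured in HeLa cells with a GRE-controlled beta-lactamase reporter; cells are co-treated with compound and 5 nM dexamethasone (final) for 18 h before FRET substrate readout.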
# [3] = qHTS assay for identifying genotoxic compounds that show differential cytotoxicity against isogenic chicken DT40 cell lines with known DNA damage response pathways - Rad54/Ku70 mutant cell line (AID 743015); details: DT40 Rad54/Ku70 mutant viability, CellTiter-Glo, 40 h; activity change, negative = cytotoxicity: at 66.8 µM (top of the series) unless noted; further: nearly all actives have a fitted effect of over 60% in size; further: potency means the concentration at half of the fitted maximal effect
# [4] = qHTS assay for small molecule disruptors of the mitochondrial membrane potential (AID 720635); details: HepG2 mitochondrial membrane potential, Mito-MPS dye ratio; ratio activity, negative = MMP loss: at 83.2 µM (top of the series) unless noted; further: potency means the concentration at half of the fitted maximal effect; on ratio activity, negative = MMP loss: on the % scale 0 is the no-effect control and ±100 the full control effect
# In short: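 HepG2 cells (2,000/well) attached overnight at 37C, then took compound for 1 hr at 37C, 5% CO2. Mito-MPS dye was added for 30 min; fluorescence was read at 490/535 nm (monomers) and 540/590 nm (aggregates).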
# [5] = qHTS assay for identifying genotoxic compounds that show differential cytotoxicity against isogenic chicken DT40 cell lines with known DNA damage response pathways - Rev3 mutant cell line (AID 743014); details: chicken DT40 Rev3-/- viability, CellTiter-Glo, 40 h; activity, negative = cytotoxicity: at 68.4 µM (top of the series) unless noted; further: nearly all actives have a fitted effect of over 55% in size; further: potency means the concentration at half of the fitted maximal effect
# [6] = qHTS assay to test for compound auto fluorescence at 460 nm (blue) in HEK293 cells (AID 720678); further: on the % scale 0 is the no-effect control and ±100 the full control effect
# In short: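 HEK293 cells (2,000/well, medium with 10% dialyzed FBS) attached 4-5 hr, then exposed to compound overnight at 37C, 5% CO2. Blue fluorescence read at 405/460 nm, with triamterene as reference fluorophore.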
# [7] = qHTS assay for identifying genotoxic compounds that show differential cytotoxicity against isogenic chicken DT40 cell lines with known DNA damage response pathways - wild type cell line (AID 743012); details: DT40 wild type chicken cells viability, CellTiter-Glo, 40 h; for Potency: activity change, negative = cytotoxicity: at 68.4 µM (top of the series) unless noted; on all read-outs here: on the % scale 0 is the no-effect control and ±100 the full control effect; nearly all actives have a fitted effect of over 60% in size
# In short: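 First, wild type DT40 cells were plated at 300 per well and equilibrated about 0.5 h at 37 C/5% CO2. Next, compounds in DMSO were added and exposure lasted 40 h. Finally, CellTiter-Glo was added for 30 min at room temperature and luminescence recorded.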
# [8] = qHTS assay to test for compound auto fluorescence at 460 nm (blue) in HEK293 cell free culture (AID 720681); further: on the % scale 0 is the no-effect control and ±100 the full control effect
# In short: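 Test compounds were pinned into cell-free culture medium (DMEM with 10% FBS) and fluorescence was read directly at Ex/Em 405/460 nm. Signals were expressed as fluorescence equivalents of triamterene, with DMSO vehicle as control.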
# [9] = qHTS assay to test for compound auto fluorescence at 460 nm (blue) in HepG2 cells (AID 720687); further: on the % scale 0 is the no-effect control and ±100 the full control effect
# In short: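 Cells (2,000/well in MEM with 10% FBS) attached overnight at 37 C, then were exposed to compound or DMSO for 1 hr at 37 C, 5% CO2. Fluorescence read at Ex/Em 405/460 nm, expressed as triamterene-equivalent signal.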
# [10] = qHTS assay to identify small molecule antagonists of the glucocorticoid receptor (GR) signaling pathway - cell viability counter screen (AID 720693); details: GR-bla HeLa viability, CellTiter-Glo luminescence, 18 h, with 5 nM dexamethasone present; viability change, negative = cytotoxic: at 58.5 µM (top of the series) unless noted; further: potency means the concentration at half of the fitted maximal effect; nearly all actives have a fitted effect of over 55% in size
# [11] = activity change, negative = inhibition: at 58.5 µM (top of the series) unless noted
# Tags describe the fitted curve by direction and shape or compound fluorescence and quenching.
# Sequence of UniProt P04150 (P04150 whole entry, looked up): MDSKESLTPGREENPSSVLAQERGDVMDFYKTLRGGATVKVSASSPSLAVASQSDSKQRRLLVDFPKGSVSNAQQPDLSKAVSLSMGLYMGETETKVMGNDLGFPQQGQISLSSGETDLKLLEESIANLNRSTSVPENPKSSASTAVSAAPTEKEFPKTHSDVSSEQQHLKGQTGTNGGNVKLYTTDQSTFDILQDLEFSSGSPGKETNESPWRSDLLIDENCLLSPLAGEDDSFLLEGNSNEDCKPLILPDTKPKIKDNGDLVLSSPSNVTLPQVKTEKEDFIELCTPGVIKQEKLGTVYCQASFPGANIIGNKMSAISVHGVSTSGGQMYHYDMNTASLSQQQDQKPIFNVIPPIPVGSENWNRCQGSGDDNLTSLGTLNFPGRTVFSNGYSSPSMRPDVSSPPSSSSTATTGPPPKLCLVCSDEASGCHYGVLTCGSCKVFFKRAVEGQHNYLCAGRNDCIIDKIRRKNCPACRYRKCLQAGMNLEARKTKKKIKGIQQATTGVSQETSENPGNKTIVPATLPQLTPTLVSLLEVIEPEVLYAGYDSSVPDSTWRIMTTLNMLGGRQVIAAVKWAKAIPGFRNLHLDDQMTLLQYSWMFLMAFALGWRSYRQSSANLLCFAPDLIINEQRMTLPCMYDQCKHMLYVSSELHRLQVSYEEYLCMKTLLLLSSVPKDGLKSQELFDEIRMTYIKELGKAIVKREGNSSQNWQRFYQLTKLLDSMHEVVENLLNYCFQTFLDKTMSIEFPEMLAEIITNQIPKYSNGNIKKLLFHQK
compound,measurement,setting,value
O=[N+]([O-])O.O=[N+]([O-])O.[Cd],Potency,[1],active: 0.389 µM
same,Potency,[2]; [11],active: 43.6 µM
same,Potency,[3],active: 61.1 µM
N#C/C(N)=C(/N)C#N,"ratio activity, negative = MMP loss",[4],inconclusive: 8.78%
same,Potency,[5],"inconclusive: 66.6 µM [cytotoxic, single point]"
CC[C@H]1C[C@H]2[C@@H]3CCC4=CC(=O)CC[C@@H]4[C@H]3CC[C@]2(C)[C@H]1O,"ratio activity, negative = MMP loss",[4],inconclusive: -22.4%
same,Potency,[3],active: 21.1 µM
CCSC(=O)Cl,Potency,[1],inactive
same,Potency,[5],inactive
C=CC(=O)OCC(C)O (centres undefined),Potency,[4],inactive
same,Potency,[5],inactive
CC(=O)OC1(c2ccccc2)CCN(CCc2ccccc2)CC1,"ratio activity, negative = MMP loss",[4],inconclusive: 2.76% [at 95.3 µM]
same,Potency,[5],active: 4.43 µM
Cc1[nH]c(=O)n(C(C)(C)C)c(=O)c1Cl,Potency,[6],inactive
same,Potency,[7],inactive
O=[N+]([O-])c1ccccc1CCl,Potency,[4],inactive
same,Potency,[3],inactive
C#CC(C)(C)NC(=O)c1cc(Cl)cc(Cl)c1,Potency,[8],inactive
same,Potency,[1],inactive
same,Potency,[2]; [11],inactive
same,Potency,[5],inconclusive: 61.7 µM [cytotoxic]
same,Potency,[3],"inconclusive: 68.6 µM [cytotoxic, single point]"
Cc1cc(C)cc(C)c1,Potency,[9],inactive
NCCc1cc(O)c(O)cc1O,Potency,[4],inactive
same,Potency,[5],"inconclusive: 33.5 µM [cytotoxic, single point]"
CCCCC1C(=O)NC(=O)N(C2CCCCC2)C1=O (centres undefined),Potency,[4],inactive
same,Potency,[3],inactive
COC(=O)C(Cl)C(=O)OC,Potency,[1],inactive
same,Potency,[7],inactive
CCCCP(CCCC)CCCC,Potency,[4],"inconclusive: 545 nM [activator, full curve, poor fit]"
same,Potency,[5],"inconclusive: 43.3 µM [cytotoxic, partial curve]"
Cn1sc(Cl)cc1=O,Potency,[1],inconclusive: 23.9 µM [activator]
same,"activity change, negative = inhibition",[2]; [11],inconclusive: 28.7%
same,"activity change, negative = inhibition",[2]; at 58.5 µM (top of the series),inactive: 10.2%
same,Potency,[10],"inconclusive: 49 µM [rising, single point]"
CCC[N+]1(C)CCCCC1,Potency,[4],"inconclusive: 30.6 µM [activator, partial curve, poor fit] and inconclusive: 77.2 µM [activator, single point]"
same,Potency,[5],"inconclusive: 68.8 µM [cytotoxic, single point]"
same,Potency,[3],"inconclusive: 68.8 µM [cytotoxic, single point]"
CCOP(=O)(O)OCC (tested in a mixture with another compound),Potency,[4],active: 24100 nM
same,Potency,[5],active: 0.0856 µM
CCC(Cl)[N+](=O)[O-] (centres undefined),Potency,[1],inactive
O=C1CCCO1,"activity change, negative = inhibition",[2]; at 58.5 µM (top of the series),inactive: 3.1%
CCCCC(CC)COC(=O)c1ccc(C(=O)OCC(CC)CCCC)c(C(=O)OCC(CC)CCCC)c1 (centres undefined),"activity change, negative = inhibition",[2]; at 58.5 µM (top of the series),inactive: 4.41%
CCn1cc[n+](C)c1,"activity change, negative = cytotoxicity",[7]; at 68.4 µM (top of the series),inactive: 3.23% [middle of 4 runs]
